The record followed here is PMC4336329 (PLoS ONE, 2015).

The whole screen tested about 310,000 compounds, of which about 14,000 (4.5%) showed an effect of 50% or more. Effects have a minus sign here. Some of the results follow.
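Note: peak tail current of the secondary pulse compared with the same well before compound.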

The target in this experiment is human ether-à-go-go-related gene (hERG) potassium channel (human, UniProt Q12809). Nature of the experiment: primary screen, population patch clamp on CHO cells stably expressing hERG.
Chain of human ether-à-go-go-related gene (hERG) potassium channel (Q12809 whole entry, looked up): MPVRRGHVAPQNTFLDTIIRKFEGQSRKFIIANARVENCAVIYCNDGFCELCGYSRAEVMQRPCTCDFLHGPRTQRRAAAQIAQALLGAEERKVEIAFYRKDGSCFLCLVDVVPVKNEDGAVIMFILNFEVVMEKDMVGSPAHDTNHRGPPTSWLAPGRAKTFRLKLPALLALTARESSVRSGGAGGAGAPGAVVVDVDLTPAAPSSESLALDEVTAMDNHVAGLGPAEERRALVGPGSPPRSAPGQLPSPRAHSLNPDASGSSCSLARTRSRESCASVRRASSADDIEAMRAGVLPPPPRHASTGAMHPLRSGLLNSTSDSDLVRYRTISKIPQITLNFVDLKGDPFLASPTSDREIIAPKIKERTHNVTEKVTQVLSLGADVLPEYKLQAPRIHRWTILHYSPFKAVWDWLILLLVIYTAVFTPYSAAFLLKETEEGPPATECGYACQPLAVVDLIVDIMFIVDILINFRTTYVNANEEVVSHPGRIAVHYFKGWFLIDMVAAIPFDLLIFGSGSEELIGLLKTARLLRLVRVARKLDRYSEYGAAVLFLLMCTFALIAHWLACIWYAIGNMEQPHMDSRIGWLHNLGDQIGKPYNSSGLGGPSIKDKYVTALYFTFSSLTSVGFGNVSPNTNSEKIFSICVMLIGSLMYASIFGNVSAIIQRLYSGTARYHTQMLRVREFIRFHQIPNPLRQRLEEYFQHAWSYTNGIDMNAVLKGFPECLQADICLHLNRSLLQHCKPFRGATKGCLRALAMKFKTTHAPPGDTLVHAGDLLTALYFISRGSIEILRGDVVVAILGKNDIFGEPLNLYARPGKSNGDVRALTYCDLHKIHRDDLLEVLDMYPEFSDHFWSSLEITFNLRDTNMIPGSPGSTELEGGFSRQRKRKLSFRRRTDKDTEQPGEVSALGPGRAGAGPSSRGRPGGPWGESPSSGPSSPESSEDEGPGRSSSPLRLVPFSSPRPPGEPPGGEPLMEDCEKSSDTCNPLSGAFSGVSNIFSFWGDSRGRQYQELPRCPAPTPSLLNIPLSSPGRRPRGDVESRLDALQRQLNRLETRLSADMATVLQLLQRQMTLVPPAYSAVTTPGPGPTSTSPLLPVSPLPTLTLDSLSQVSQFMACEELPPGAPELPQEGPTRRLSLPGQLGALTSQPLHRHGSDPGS
For the compound `O=C(/C=C/c1cccc([N+](=O)[O-])c1)N1CCN(c2ccc(F)cc2)CC1`, the “hERG current change (%, negative = inhibition) at 10uM” value is on record as -56.7%.
On to `CCCCn1c(N)c(N(CC)C(=O)C2=COCCO2)c(=O)[nH]c1=O`, for which the “hERG current change (%, negative = inhibition) at 10uM” value came out at 8.34%.
Turning to `CCOc1ccc(OCCC(=O)N2CCc3cc(OC)c(OC)cc3C2)cc1`, the “hERG current change (%, negative = inhibition) at 10uM” value was -20.6%.
On to `CC(C)(C)NC(=O)CSc1nc2[nH]ncc2c(=O)[nH]1`, for which the “hERG current change (%, negative = inhibition) at 10uM” value is on record as 9.86%.
In the case of `FC(F)(F)c1cc(C(F)(F)F)n2nc(-c3sccc3-n3cccc3)cc2n1` it was 20.9%.
On to `O=C(NC(=S)Nc1ccc(Cc2ccncc2)cc1)c1ccc(F)cc1`, for which the “hERG current change (%, negative = inhibition) at 10uM” value is 7.59%.
In the case of `C=CCN1C(=O)/C(=C2/Sc3ccc(OC)cc3N2C)SC1=Nc1ccccc1` it was -0.344%; in that of `Cc1cc(C)cc(NC(=S)N2CCN(Cc3ccccc3)CC2)c1`, 4%.
Turning to `COc1cc(NC(=O)CSc2ncnc3sc4c(c23)CCC(C)C4)c(C(=O)O)cc1OC` (centres unmarked), the “hERG current change (%, negative = inhibition) at 10uM” value came to 19.9%.
As for `CCOc1ncccc1C(=O)NNC(=O)c1cccc(S(=O)(=O)Nc2ccc(OC)cc2)c1`, the “hERG current change (%, negative = inhibition) at 10uM” value was 6.87%.
Consider `CCOc1ccc(NC(=O)CN(C)C(=O)C2CCN(c3ncnc4sc(C)c(C)c34)CC2)cc1OCC`, for which the “hERG current change (%, negative = inhibition) at 10uM” value is -58.2%.
Take `Cc1cc(C)c(NC(=O)COC(=O)/C=C/c2cccs2)c(C)c1`: the “hERG current change (%, negative = inhibition) at 10uM” value stood at 8.38%.
In the case of `COC(=O)CC1C(=O)NCCN1C(=O)NC1CCCCC1` (centres unmarked) it was -0.592%; in that of `CN(Cc1ccco1)c1ncnc2ccc(-c3ccc4c(c3)OCO4)cc12`, 5.54%; in that of `COc1cc(/C=N\NC(=O)c2sc(N)nc2C)cc(OC)c1OC`, 0.828%.
As to `Br.CCCCC1CC(CSC(=N)N)OC1=O` (centres unmarked), the “hERG current change (%, negative = inhibition) at 10uM” value is listed as -1.27%.
The same measure for `CC(=O)NC(Cc1ccc(C(C)C)cc1)C(=O)NC1CCN(c2nc(C)cc(C)n2)CC1` (centres unmarked): -3.4%.
The same measure for `Cc1ccc(OCC(=O)N2N=C(c3cccnc3)CC2(O)C(F)(F)F)cc1C` (centres unmarked): -4.25%; for `S=C(Nc1cccnc1)NC1CCCCCCC1`: -1.63%; for `O=C(Nc1ccccc1)Nc1ccc(Br)c(Cl)c1`: 11%.
For `Oc1ccccc1C1OCC2(CO1)COC(c1ccccc1O)OC2` (centres unmarked), the “hERG current change (%, negative = inhibition) at 10uM” value is recorded as -8.32%.
`CCCN1CCN(C(=O)c2oc3c(Cl)cccc3c2C)CC1`: the “hERG current change (%, negative = inhibition) at 10uM” value is listed as -24.7%.
Regarding `Cc1nc2cc(C(=O)OCC(=O)Nc3ccc(C#N)cc3)ccc2n1-c1ccccc1`, the “hERG current change (%, negative = inhibition) at 10uM” value came out at 6.46%.
As to `Cc1c(C#N)c(NC(=O)c2ccccc2)n(Cc2ccccc2)c1C`, the “hERG current change (%, negative = inhibition) at 10uM” value came out at 2.21%.
For the compound `CC(NC(=O)C1C2C=CC(C2)C1C(=O)O)c1ccccc1` (centres unmarked), the “hERG current change (%, negative = inhibition) at 10uM” value is on record as 14.7%.
The same measure for `COc1cc(/C=C/c2nc3ccc([N+](=O)[O-])cc3s2)ccc1OCC(=O)O`: 9.41%; for `COc1ccc([N+](=O)[O-])cc1NC(=S)NC(NC(C)=O)C(Cl)(Cl)Cl` (centres unmarked): 4.56%.
`COc1cc(OC)nc(Oc2ccc(NC(C)=O)cc2)n1`: the “hERG current change (%, negative = inhibition) at 10uM” value worked out at 10.7%.
Consider `COc1ccc(C2CC(c3cc(Br)ccc3F)n3nnnc3N2)cc1` (centres unmarked), for which the “hERG current change (%, negative = inhibition) at 10uM” value is given as -2.78%.
The same measure for `Cc1ccc(NC(=O)Nc2cnccn2)cc1C`: 22%.
As to `CN1CCN(NC(=O)c2ccc(Br)s2)CC1`, the “hERG current change (%, negative = inhibition) at 10uM” value is recorded as -5.74%.
The same measure for `CC1(C)C2CC=C(CN3CCOCC3)C1C2` (centres unmarked): -1.04%; for `COc1ccc(CNc2nc(NCc3ccc(OC)c(OC)c3)n(C(=O)c3cccs3)n2)cc1OC`: 12.3%.
In the case of `O=C(CSc1nnc(-c2ccc(F)cc2)o1)N1CCCC1` it was -9.52%; in that of `CC(C)c1csc(CN2CCC(CCC(=O)NCC3CCCO3)CC2)n1` (centres unmarked), 0.656%.
With `Cc1ccc(CSc2ccc(C(=O)N3CCOCC3)cc2[N+](=O)[O-])cc1`, the “hERG current change (%, negative = inhibition) at 10uM” value is recorded as -0.475%.
The same measure for `O=C(CN1C(=O)CSC1=O)Nc1ccccc1N1CCOCC1`: 22.1%; for `CC1(c2ccccc2)NC(=O)N(CC(=O)Nc2nc(-c3ccccn3)cs2)C1=O` (centres unmarked): 0.219%; for `COc1ccc(N=Cc2oc3ccc4ccccc4c3c2O)cc1`: 18.3%.
In the case of `Cc1ccc(NC(=O)CSc2ncc(-c3ccccc3)n2C(=O)c2ccccc2)cc1`, the “hERG current change (%, negative = inhibition) at 10uM” value is given as 3.93%.
In the case of `CN(C1CCCC1)C1CCN(C(=O)CNC(=O)/C=C/c2ccccc2)CC1` it was -53.8%; in that of `Cc1c(NC(=S)NC(=O)Cc2ccccc2)cccc1C(=O)O`, -11.8%; in that of `COc1ccc(-c2nnc(SCC(=O)c3ccco3)n2-c2ccccc2)cc1`, 3.04%.
In the case of `COc1ccc(CCN(C)C(=O)c2cc(-c3ccccc3)nc3ccccc23)cc1OC`, the “hERG current change (%, negative = inhibition) at 10uM” value is -4.79%.
